Some test systems named below: MZ2-MEL; MeWo; RPMI7951; RVH-421; SkMel28; SkMel2; SkMel30; SkMel5; UACC257; UACC62; WM115; WM1716; WM1745; WM3526; WM3619; WM451Lu.
Holding throughout (assay): cell count relative to DMSO control; melanoma cells; higher = more viable cells
Common to all, as to conditions: library dose: low library concentration; 72 h

Some of the results follow. Single values are uncertain, as repeats are few or missing.
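Also: cell number obtained by counting DAPI-stained nuclei in high-throughput microscope images with image analysis software, screen run in 1,536-well plates.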

In the case of `CC(=O)O[C@@]12CO[C@@H]1C[C@H](O)[C@@]1(C)C(=O)[C@H](O)C3=C(C)[C@@H](OC(=O)[C@H](O)[C@@H](NC(=O)OC(C)(C)C)c4ccccc4)C[C@@](O)([C@@H](OC(=O)c4ccccc4)[C@H]21)C3(C)C` [Docetaxel] + NC(=O)Nc1cc(-c2cccc(F)c2)sc1C(=O)N[C@H]1CCCNC1 [AZD7762] (first compound 0.0001 µM, partner dose 0.02 µM), the cell count came to 50.4% in the test on MZ2-MEL; 44.8% in the test on MeWo; 36% in the test on RPMI7951; 84.4% in the test with RVH-421; 39.2% in the test with SkMel28; 43.4% in the test on SkMel2. The cell count in the test on SkMel30 worked out at 28.2%; in the test on SkMel5 it was 84.3%; with UACC257, 53.6%; in the test on UACC62 it was 48.1%; in the test with WM115 it was 56.2%; with WM1716, 30.2%. Besides, the cell count in the test with WM1745 was 59.5%; with WM3526, 42.5%; with WM3619 it was 35.5%; in the test on WM451Lu, 65.1%.
In the case of `CC(=O)c1c(C)c2cnc(Nc3ccc(N4CCNCC4)cn3)nc2n(C2CCCC2)c1=O` [palbociclib] + N#Cc1c(O)c2c(-c3ccc(-c4ccccc4O)cc3)csc2[nH]c1=O [A769662] (first compound 0.04 µM, partner dose 2 µM), the cell count was determined as 77.8% with MZ2-MEL; 70.3% in the test with MeWo; 77.6% in the test on RPMI7951; 67.4% in the test with RVH-421; 64.9% in the test on SkMel28; 86.5% in the test with SkMel2. The cell count in the test with SkMel30 was determined as 61.8%; with SkMel5, 72.3%; with UACC257 it was 76.5%; in the test on UACC62, 76.4%; in the test with WM115 it was 72.1%; in the test on WM1716, 57.2%. Also, the cell count was 72.6% in the test on WM1745, 60.8% in the test with WM3526, 70% in the test with WM3619 and 57.4% in the test on WM451Lu.
As for `CC(=O)O[C@@]12CO[C@@H]1C[C@H](O)[C@@]1(C)C(=O)[C@H](O)C3=C(C)[C@@H](OC(=O)[C@H](O)[C@@H](NC(=O)OC(C)(C)C)c4ccccc4)C[C@@](O)([C@@H](OC(=O)c4ccccc4)[C@H]21)C3(C)C` [Docetaxel] + Cn1cc(/C=C2\C(=O)Nc3cccnc32)c2ccccc21 [GW441756] (first compound 0.0001 µM, partner dose 0.4 µM), the cell count in the test on MZ2-MEL came out at 48%; with MeWo, 34.8%; in the test on RPMI7951, 29%; in the test with RVH-421, 91.1%; with SkMel28, 41.9%; in the test with SkMel2, 27%. Besides, the cell count in the test on SkMel30 was 24.1%; in the test with SkMel5 it was 76.4%; with UACC257, 45.4%; in the test with UACC62, 39.9%; with WM115, 68.1%; in the test with WM1716, 34.5%. Besides, the cell count in the test on WM1745 was 54.9%; in the test with WM3526, 37.3%; in the test with WM3619, 69.2%; in the test on WM451Lu, 50.8%.
Turning to `Nc1ccn([C@@H]2O[C@H](CO)[C@@H](O)C2(F)F)c(=O)n1` [gemcitabine] + O=c1cc(-c2cccc3c2Sc2ccccc2S3)oc(N2CCOCC2)c1 [KU55933] (first compound 0.0004 µM, partner dose 1 µM), the cell count in the test on MZ2-MEL was 109%; in the test on MeWo, 106%; in the test with RPMI7951 it was 96.4%; with RVH-421, 105%; in the test on SkMel28, 95.3%; in the test with SkMel2, 100%. In addition, the cell count stood at 73.8% with SkMel30; 110% with SkMel5; 78.6% in the test on UACC257; 86.1% in the test with UACC62; 102% in the test on WM115; 97.8% with WM1716. In addition, the cell count in the test with WM1745 was determined as 78.9%; with WM3526 it was 54.1%; in the test with WM3619 it was 71.5%; in the test on WM451Lu, 128%.
Consider `CC(=O)c1c(C)c2cnc(Nc3ccc(N4CCNCC4)cn3)nc2n(C2CCCC2)c1=O` [palbociclib] + COc1cc2ncnc(Nc3ccc(Oc4ccccc4)cc3)c2cc1OC [SrcI1] (first compound 0.04 µM, partner dose 2 µM), for which the cell count in the test on MZ2-MEL is 54%; in the test with MeWo, 78.9%; with RPMI7951, 68.4%; in the test with RVH-421 it was 88%; in the test with SkMel28 it was 64.3%; in the test on SkMel2 it was 89.1%. Also, the cell count in the test on SkMel30 was 51.4%; with SkMel5, 60.7%; in the test with UACC257, 80%; in the test on UACC62, 70.7%; in the test with WM115 it was 69.3%; with WM1716, 56.9%. Further, the cell count in the test with WM1745 was found to be 65.3%; with WM3526, 63.8%; in the test on WM3619, 69.7%; with WM451Lu, 62.4%.
In the case of `Nc1nc(F)nc2c1ncn2[C@@H]1O[C@H](CO)[C@@H](O)[C@@H]1O` [fludarabine] + COC(=O)c1sccc1S(=O)(=O)Nc1ccc(Nc2ccccc2)cc1OC [GSK0660] (first compound 0.2 µM, partner dose 1 µM), the cell count in the test on MZ2-MEL was 95.9%; with MeWo, 29.3%; in the test on RPMI7951, 85.4%; in the test on RVH-421, 103%; with SkMel28, 66%; with SkMel2 it was 4.87%. Moreover, the cell count was determined as 17.1% in the test on SkMel30; 58.2% in the test on SkMel5; 95.6% with UACC257; 96% in the test with UACC62; 100% in the test with WM115; 103% in the test with WM1716. In addition, the cell count was 109% in the test on WM1745, 27.2% in the test with WM3526, 102% in the test on WM3619 and 46.9% with WM451Lu.
For `Nc1ncn([C@H]2C[C@H](O)[C@@H](CO)O2)c(=O)n1` [decitabine] + COc1ccc2c(c1)CCC1C2CCC2(C)C(NCCCCCCN3C(=O)C=CC3=O)CCC12 [U73122] (first compound 0.1 µM, partner dose 0.4 µM), the cell count with MZ2-MEL came to 93.8%; in the test with MeWo, 102%; in the test on RPMI7951, 91%; with RVH-421, 86.8%; in the test with SkMel28, 72.6%; in the test on SkMel2, 114%. Moreover, the cell count with SkMel30 amounted to 123%; in the test with SkMel5, 103%; in the test on UACC257 it was 90.8%; in the test with UACC62, 73%; with WM115, 79.7%; with WM1716, 76.4%. Further, the cell count in the test on WM1745 is 90.8%; in the test on WM3526, 100%; with WM3619, 145%; in the test with WM451Lu it was 118%.
With `CC(=O)c1c(C)c2cnc(Nc3ccc(N4CCNCC4)cn3)nc2n(C2CCCC2)c1=O` [palbociclib] + Cc1ccc(NC(=O)c2cccc(N(C)C)c2)cc1NC(=O)c1ccc(O)cc1 [ZM336372] (first compound 0.04 µM, partner dose 2 µM), the cell count is 66.8% in the test with MZ2-MEL; 75% in the test on MeWo; 60.2% in the test on RPMI7951; 82.8% in the test with RVH-421; 73.6% in the test with SkMel28; 94.8% in the test with SkMel2. In addition, the cell count with SkMel30 worked out at 66.9%; in the test with SkMel5 it was 74.9%; in the test on UACC257, 75.8%; in the test with UACC62 it was 76.5%; in the test on WM115 it was 81.5%; in the test with WM1716, 72.3%. For the same compound, the cell count in the test with WM1745 amounted to 73.7%; in the test with WM3526, 58.9%; in the test on WM3619, 71%; in the test on WM451Lu, 94.1%.
For the compound `CC(=O)c1c(C)c2cnc(Nc3ccc(N4CCNCC4)cn3)nc2n(C2CCCC2)c1=O` [palbociclib] + CC1(C)NC(=O)N(c2ccc([N+](=O)[O-])c(C(F)(F)F)c2)C1=O [nilutamide] (first compound 0.04 µM, partner dose 1 µM), the cell count was 86% in the test with MZ2-MEL; 69.4% in the test on MeWo; 80.9% in the test with RPMI7951; 83.8% with RVH-421; 69.2% in the test on SkMel28; 77.6% with SkMel2. Besides, the cell count was 73.5% with SkMel30; 78.9% with SkMel5; 65.7% in the test on UACC257; 68.9% in the test with UACC62; 74.9% in the test with WM115; 67.9% in the test on WM1716. Besides, the cell count was found to be 53.8% with WM1745, 45.6% in the test with WM3526, 50.1% in the test on WM3619 and 72.6% in the test on WM451Lu.
